Data from article PMC11612456.
These are yes or no findings as the source states them, for the method shown. For part of these data: Binding seen in cells or lysates may run through a third protein. Some entries that bind do so weakly or less than the wild type. Sequences can lack the tags named with a protein.

Chains of the proteins cited; added tags and fusions are not shown. Lines headed by an entry give the natural chain unless they say otherwise; changes in a name come on top. A line that says so, or that is headed by a name, gives the form on record, which may keep a tag or linker.
UniProt P49597: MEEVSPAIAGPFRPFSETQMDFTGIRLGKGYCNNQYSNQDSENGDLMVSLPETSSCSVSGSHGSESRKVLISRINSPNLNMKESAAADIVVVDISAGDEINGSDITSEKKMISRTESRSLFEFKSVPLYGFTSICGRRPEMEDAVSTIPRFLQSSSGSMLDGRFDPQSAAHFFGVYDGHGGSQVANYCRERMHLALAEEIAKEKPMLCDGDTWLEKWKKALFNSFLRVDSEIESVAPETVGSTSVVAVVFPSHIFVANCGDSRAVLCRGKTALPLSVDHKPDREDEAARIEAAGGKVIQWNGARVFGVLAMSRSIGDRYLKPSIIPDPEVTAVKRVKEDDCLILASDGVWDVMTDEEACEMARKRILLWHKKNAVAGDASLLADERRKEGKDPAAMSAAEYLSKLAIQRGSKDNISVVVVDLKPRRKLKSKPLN
cLUC-abi1-1 (P49597, form named): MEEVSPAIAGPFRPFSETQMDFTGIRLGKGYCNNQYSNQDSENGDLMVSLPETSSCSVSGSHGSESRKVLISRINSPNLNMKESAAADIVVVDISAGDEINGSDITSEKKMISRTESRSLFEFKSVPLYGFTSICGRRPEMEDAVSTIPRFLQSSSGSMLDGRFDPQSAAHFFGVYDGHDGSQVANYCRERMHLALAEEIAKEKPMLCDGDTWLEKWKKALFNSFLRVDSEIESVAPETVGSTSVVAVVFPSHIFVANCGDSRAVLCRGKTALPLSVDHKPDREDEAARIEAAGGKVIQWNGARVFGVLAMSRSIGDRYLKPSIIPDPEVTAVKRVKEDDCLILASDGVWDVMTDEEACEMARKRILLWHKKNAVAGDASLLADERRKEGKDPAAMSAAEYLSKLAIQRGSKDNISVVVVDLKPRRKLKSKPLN

Tests used:
[1] = target: T1, SnRK2.6-nLUC (Arabidopsis thaliana) (UniProt Q940H6); assay: split reporter; split luciferase (LUC) complementation (LCI): nLUC and cLUC fusions transiently co-expressed in N. benthamiana leaves by Agrobacterium infiltration, LUC signal imaged with a CCD camera two days later; in some panels BIK1-GFP or GFP co-expressed
T1 sequence: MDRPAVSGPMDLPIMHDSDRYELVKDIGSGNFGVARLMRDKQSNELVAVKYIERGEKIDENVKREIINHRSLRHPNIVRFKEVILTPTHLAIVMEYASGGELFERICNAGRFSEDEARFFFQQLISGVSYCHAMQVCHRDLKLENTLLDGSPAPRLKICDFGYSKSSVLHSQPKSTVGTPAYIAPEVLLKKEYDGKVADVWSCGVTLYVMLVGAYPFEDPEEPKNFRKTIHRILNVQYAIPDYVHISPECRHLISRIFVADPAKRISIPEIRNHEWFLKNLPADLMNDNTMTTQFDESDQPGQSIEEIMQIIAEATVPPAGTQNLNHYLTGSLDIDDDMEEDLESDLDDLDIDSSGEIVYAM

[2] = target: T2, SnRK2.6^13A/Fs-nLUC (Arabidopsis thaliana) (UniProt Q940H6); assay: as above
T2 sequence: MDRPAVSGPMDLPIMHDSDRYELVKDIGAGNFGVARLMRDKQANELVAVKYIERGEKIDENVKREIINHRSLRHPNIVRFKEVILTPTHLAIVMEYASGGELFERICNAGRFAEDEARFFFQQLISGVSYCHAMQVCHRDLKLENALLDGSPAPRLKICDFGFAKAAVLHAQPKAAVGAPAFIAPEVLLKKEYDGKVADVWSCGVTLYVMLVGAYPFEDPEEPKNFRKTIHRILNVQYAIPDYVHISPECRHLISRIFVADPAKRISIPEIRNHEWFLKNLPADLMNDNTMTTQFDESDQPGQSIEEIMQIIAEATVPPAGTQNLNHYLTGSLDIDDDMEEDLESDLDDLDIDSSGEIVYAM

[3] = target: T3, BIK1-nLUC (Arabidopsis thaliana) (UniProt O48814); assay: as above
T3 sequence: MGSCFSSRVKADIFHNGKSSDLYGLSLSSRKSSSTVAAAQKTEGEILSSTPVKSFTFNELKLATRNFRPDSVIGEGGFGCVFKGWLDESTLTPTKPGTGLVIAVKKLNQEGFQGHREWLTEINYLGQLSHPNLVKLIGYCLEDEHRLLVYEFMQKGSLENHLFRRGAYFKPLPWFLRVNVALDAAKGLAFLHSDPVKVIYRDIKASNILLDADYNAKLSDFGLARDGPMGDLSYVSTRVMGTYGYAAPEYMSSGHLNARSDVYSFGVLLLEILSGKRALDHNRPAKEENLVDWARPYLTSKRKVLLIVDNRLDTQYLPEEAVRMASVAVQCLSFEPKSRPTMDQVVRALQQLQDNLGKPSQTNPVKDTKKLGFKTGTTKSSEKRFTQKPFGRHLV

[4] = target: T4, BD-SnRK2.6 (pGBKT7) (Arabidopsis thaliana) (UniProt Q940H6); assay: two-hybrid; yeast two-hybrid (Y2H): pGBKT7 BD fusions and pGADT7 AD fusions in yeast strain Gold; growth on SD-LWH or SD-ALWH
T4 sequence: T1 sequence

[5] = target: T5, BD-BIK1 (Arabidopsis thaliana) (UniProt O48814); assay: as above
T5 sequence: T3 sequence

[6] = target: T6, BD-SnRK2.6^13A/Fs (Arabidopsis thaliana) (UniProt Q940H6); assay: as above
T6 sequence: T2 sequence

[7] = target: T7, BD-SnRK2.6 (pBridge) (Arabidopsis thaliana) (UniProt Q940H6); assay: two-hybrid; yeast three-hybrid (Y3H): BD-SnRK2.6 in MCS I of pBridge, without or with BIK1 in MCS II (pMET), with pGADT7 AD fusions in yeast AH109; growth on SD-ALWHM without or with 1 M mannitol
T7 sequence: T1 sequence

[8] = target: T8, BIK1-HA (Arabidopsis thaliana) (UniProt O48814); assay: co-IP; total proteins of pBIK1:BIK1-HA transgenic plants in IP buffer (Tris-HCl pH 7.5, NaCl, EDTA, EGTA, 0.2% Tween 20 at 2x), anti-HA nanobody magarose beads 2 h, three washes; blot with anti-SnRK2.2/3/6 and anti-HA
T8 sequence: T3 sequence

Molecule: cLUC-ABI1^W300R (from UniProt P49597 1-434)
- binding [1]: binds

Molecule: cLUC-ABI1 (from UniProt P49597 1-434)
- binding [2]: binds
- binding [1]: binds
- binding [3]: no binding

Molecule: AD-ABI1 (from UniProt P49597 1-434)
- binding [4]: binds
- binding [5]: no binding
- binding [6]: binds
- binding [7]: binds

Molecule: cLUC-ABI1^W300A (from UniProt P49597 1-434)
- binding [1]: binds

Molecule: AD-abi1-1 (from UniProt P49597 1-434)
- binding [7]: binds

Molecule: AD-ABI1^W300R (from UniProt P49597 1-434)
- binding [4]: binds

Molecule: AD-ABI1^W300A (from UniProt P49597 1-434)
- binding [4]: binds

Molecule: cLUC-abi1-1 (from UniProt P49597 1-434)
- binding [1]: binds

B1: endogenous SnRK2.2 (protein, UniProt Q39192 1-362)
chain: MDPATNSPIMPIDLPIMHDSDRYDFVKDIGSGNFGVARLMTDRVTKELVAVKYIERGEKIDENVQREIINHRSLRHPNIVRFKEVILTPSHLAIVMEYAAGGELYERICNAGRFSEDEARFFFQQLISGVSYCHAMQICHRDLKLENTLLDGSPAPRLKICDFGYSKSSVLHSQPKSTVGTPAYIAPEILLRQEYDGKLADVWSCGVTLYVMLVGAYPFEDPQEPRDYRKTIQRILSVTYSIPEDLHLSPECRHLISRIFVADPATRITIPEITSDKWFLKNLPGDLMDENRMGSQFQEPEQPMQSLDTIMQIISEATIPTVRNRCLDDFMADNLDLDDDMDDFDSESEIDVDSSGEIVYAL
- binding [8]: binds

B2: endogenous SnRK2.3 (protein, UniProt Q39193 1-361)
chain: MDRAPVTTGPLDMPIMHDSDRYDFVKDIGSGNFGVARLMRDKLTKELVAVKYIERGDKIDENVQREIINHRSLRHPNIVRFKEVILTPTHLAIIMEYASGGELYERICNAGRFSEDEARFFFQQLLSGVSYCHSMQICHRDLKLENTLLDGSPAPRLKICDFGYSKSSVLHSQPKSTVGTPAYIAPEVLLRQEYDGKIADVWSCGVTLYVMLVGAYPFEDPEEPRDYRKTIQRILSVKYSIPDDIRISPECCHLISRIFVADPATRISIPEIKTHSWFLKNLPADLMNESNTGSQFQEPEQPMQSLDTIMQIISEATIPAVRNRCLDDFMTDNLDLDDDMDDFDSESEIDIDSSGEIVYAL
- binding [8]: binds
